# PubChem BioAssay (NCI)
#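 Cells were grown in 96-well plates and exposed to each compound for 48 hours at five concentrations; endpoints were interpolated linearly between bracketing concentrations, or set to the highest concentration if not reached. At the GI50, growth is halved. TGI marks complete inhibition of growth.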
# System: NCI-H322M lung
# Experiment: NCI tumour cell line growth inhibition, 48 h
SMILES,GI50 [µM],TGI [µM]
CCc1ccccc1NC(=O)N/C(N)=N/c1nc2ccccc2s1,0.0925,38
O=C(CNc1nc(-c2ccccc2)cs1)Nc1ccccc1,1.62,3.21
Cc1cc(=O)oc2cc(OCCOc3ccc(/C=C/C(=O)Nc4ccccc4N)cc3)ccc12,> 100,> 100
O=C(NO)c1ccc(CNc2nc(-c3ccccc3)c3ccccc3n2)cc1,2.78,> 19.7
CCCCSc1nc(Nc2ccc(S(N)(=O)=O)cc2)c(C#N)c(-c2ccc(Cl)cc2)n1,11.2,39.1
S=C(Nc1ccc(OCc2nc3ccc(Cl)cc3[nH]2)cc1)NC1CCCCC1,10.1,21.7
